In all, about 310,000 compounds went through this assay and about 14,000 (4.5%) showed an effect of 50% or more. The effect is printed as a negative number. Some of the results follow.
These molecules were tested against human ether-à-go-go-related gene (hERG) potassium channel (human, UniProt Q12809) (assay: primary screen, population patch clamp on CHO cells stably expressing hERG).
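Also: peak tail current of the secondary pulse compared with the same well before compound.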

Sequence of human ether-à-go-go-related gene (hERG) potassium channel (Q12809 whole entry, looked up): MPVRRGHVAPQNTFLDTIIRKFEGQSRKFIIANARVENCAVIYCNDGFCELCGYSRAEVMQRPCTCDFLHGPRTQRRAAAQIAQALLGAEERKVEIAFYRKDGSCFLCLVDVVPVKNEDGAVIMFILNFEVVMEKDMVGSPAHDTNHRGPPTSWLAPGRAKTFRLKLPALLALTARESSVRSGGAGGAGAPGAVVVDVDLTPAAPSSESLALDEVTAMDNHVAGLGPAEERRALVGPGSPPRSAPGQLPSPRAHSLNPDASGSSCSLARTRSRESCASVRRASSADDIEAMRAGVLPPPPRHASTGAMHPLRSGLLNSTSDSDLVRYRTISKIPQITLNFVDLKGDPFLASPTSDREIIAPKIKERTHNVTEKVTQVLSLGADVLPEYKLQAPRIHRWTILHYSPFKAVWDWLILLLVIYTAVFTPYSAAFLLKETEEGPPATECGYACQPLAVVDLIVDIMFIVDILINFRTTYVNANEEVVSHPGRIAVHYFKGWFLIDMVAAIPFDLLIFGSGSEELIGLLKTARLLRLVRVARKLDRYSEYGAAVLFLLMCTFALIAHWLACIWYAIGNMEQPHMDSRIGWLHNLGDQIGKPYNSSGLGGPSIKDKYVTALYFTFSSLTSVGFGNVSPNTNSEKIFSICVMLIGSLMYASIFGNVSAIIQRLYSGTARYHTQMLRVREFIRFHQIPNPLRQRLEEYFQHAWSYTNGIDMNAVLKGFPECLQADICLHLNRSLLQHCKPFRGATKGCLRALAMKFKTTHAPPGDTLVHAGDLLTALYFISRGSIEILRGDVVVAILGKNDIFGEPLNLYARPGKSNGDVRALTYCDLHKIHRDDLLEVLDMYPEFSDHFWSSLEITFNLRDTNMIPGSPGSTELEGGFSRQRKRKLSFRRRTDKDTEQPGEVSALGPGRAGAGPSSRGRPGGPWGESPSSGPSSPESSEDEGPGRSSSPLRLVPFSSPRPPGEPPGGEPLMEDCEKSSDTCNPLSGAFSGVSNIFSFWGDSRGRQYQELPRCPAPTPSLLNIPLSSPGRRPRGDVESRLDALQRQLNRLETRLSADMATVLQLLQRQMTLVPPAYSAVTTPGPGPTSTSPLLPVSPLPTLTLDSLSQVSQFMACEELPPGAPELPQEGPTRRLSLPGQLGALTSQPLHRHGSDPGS

SMILES | hERG current change (%, negative = inhibition) at 10uM [%]
Cc1ccsc1S(=O)(=O)N1CCCC(CCC(=O)NCc2ccccc2F)C1 (stereo not drawn) | 5.38
CN(C)S(=O)(=O)Oc1ccsc1C(=O)Nc1ccc(Br)cc1 | -12.2
Cc1ccc(-n2nc(CN3CCOCC3)c(-c3ccccc3)c2N)cc1Cl | -4.56
CCN(Cc1ccc(NC(C)=O)cc1)CC1CCCN(CCc2cccc(F)c2)C1 (stereo not drawn) | -24.4
Cc1ccccc1NC(=O)COC(=O)c1cccc(S(=O)(=O)N2CCCCC2)c1 | -6.55
Clc1ccc(CO/N=C/c2c(-c3ccccc3)nc3n2CCS3)c(Cl)c1 | 12.7
Cc1nc(C)c(-c2csc(Nc3cccnc3)n2)s1 | -1.69
CC(=O)c1cn(-c2ccc([N+](=O)[O-])cc2)c(=O)n(C)c1=O | -18.3
Cc1ccsc1/C=N/NC(=O)CNC(=O)c1ccc(S(=O)(=O)N2CCOCC2)cc1 | 2.86
O=S(=O)(c1ccc(Br)cc1)N1CCCC1c1nc2ccccc2s1 (stereo not drawn) | -17
CCOC(=O)[C@H]1[C@H]2COc3ccc(OC)cc3[C@@H]2N2C(=O)CN(Cc3ccco3)C(=O)[C@@]12C | 0.741
Cn1ccnc1C(=O)c1cc(SCC(=O)N2CCOCC2)nc2ccccc12 | 9.21
O=C1C=C(c2ccc(Cl)c(C(F)(F)F)c2)C[C@@H](c2ccc(Cl)cc2)C1 | 15.4
CSc1ncc(C(=O)Nc2ccccc2F)c(-c2ccccc2)n1 | 13.1
Cc1ccccc1CS(=O)(=O)Cc1ccc(C(=O)NCC2CCCO2)o1 (stereo not drawn) | 14.3
Cc1ccc(C(=O)NC2CCCCCCC2)c(Cl)c1 | -0.762
Cc1cc(CNC(=O)C2(C(F)(F)F)C/C(=C\Cc3ccccc3)CCCO2)nn1C (stereo not drawn) | 9.35
N#C/C(=C(/O)COC(=O)CCC1CCCCC1)c1nc2ccccc2[nH]1 | 6.03
CCCc1cc(=O)oc2c(C)c(OCc3nn[nH]n3)ccc12 | 2.98
NS(=O)(=O)c1ccc(NC(=O)c2cc(-c3ccccc3O)n[nH]2)cc1 | 13.3
Cc1cccn2c1nc(=S)n2C(=O)c1ccco1 | 13.4
O=C1CN(C(=O)COC(=O)C2=COCCO2)c2ccccc2N1 | -10.7

SMILES | hERG current change (%, negative = inhibition) at 10uM [%]
COc1ccc(NC(=O)CN(c2ccc(C)cc2)S(=O)(=O)c2c(C)nn(C)c2C)cc1 | 6.26
CC(=O)NCC(=O)OCC(=O)c1ccc(C)c(C)c1 | -0.439
CCCCNC(=O)CNC(=S)N(CCCN1CCOCC1)Cc1cccs1 | -27.4
CCOc1ccccc1C(=O)NCCCCCC(=O)O | 19.4
Cc1ccc(NC(=O)CSc2ccc3nnc(-c4cccnc4)n3n2)cc1 | -53.1
O=C(Nc1cccc(Cl)c1N1CCOCC1)c1cccnc1Cl | -3.48
O=C(NCCc1nc2ccccc2[nH]1)/C(=C/c1ccc(F)cc1)NC(=O)c1ccco1 | -62.8
NC(=O)c1c(NC(NC(=O)c2ccco2)(C(F)(F)F)C(F)(F)F)sc2c1CCCC2 | 5.02
CC(=O)c1cccc(NC(=S)N2CCN(CCN3C(=O)c4cccc5cccc(c45)C3=O)CC2)c1 | 9.92
Cc1ccc(OCC(=O)NCCNC(=O)c2ccc(C)nc2)cc1 | 17.3
CC(C)(C)c1ccc(S(=O)(=O)NCCOCC(F)(F)C(F)F)cc1 | -1.09
Cc1cc(Cl)c(OCCCn2ccnc2)c(Br)c1 | -16.8
CCC(=O)Nc1cc(OC)c(NC(=O)c2ccccc2)cc1OC | -0.325
COc1ccc(C(=O)NCc2ccc(C(=O)NCC(OC)OC)cc2)cc1OC | 16.4
COC(=O)[C@@H](Cc1c[nH]c2ccccc12)NC(=O)c1cc(=O)[nH]c2ccccc12 | 3.38
CCOC(=O)n1cc(-c2cnc(CNC(=O)C(C)(c3ccccc3)c3ccccc3)o2)c2ccccc21 | -21.8
COc1ccc(O)c(CN2CCCC(C(=O)c3ccccc3SC)C2)c1 (stereo not drawn) | -30.9
Nc1ccc(CCn2ccnc2)cc1 | 33.9
O=C(c1ccccc1)c1ccc2nc(N3CCCCC3)c3nncn3c2c1 | 0.75
O=c1[nH]c(N2CCCCC2)nc2c1CCCC2 | -4.35
Cc1nc2ccccc2c2oc(C(=O)N3CCN(c4ccc([N+](=O)[O-])cc4)CC3)cc12 | -9.45
Cc1ccc(S(=O)(=O)N2CCCCC2)cc1NC(=O)COC(=O)c1cc[n+]([O-])cc1 | -15.1

SMILES | hERG current change (%, negative = inhibition) at 10uM [%]
CC(=O)c1c(C)[nH]c(C(=O)CSc2nnc(N)s2)c1C | 17.3
COCCNC(=O)c1ccc(N2CCC3(CC2)OCCO3)c([N+](=O)[O-])c1 | 12.4
CCOC(=O)c1c(NC(=O)COC(=O)CNC(=O)c2ccc(Cl)cc2Cl)sc(C(=O)N(C)C)c1C | -45.7
O=C(Nc1ccc(NC(=O)c2cccs2)cc1)c1ccc2c(c1)OCO2 | 3.29
CCCCOc1ccc(C(=O)NCC(=O)NC(C)CCc2ccccc2)cc1 (stereo not drawn) | -4.99
Cc1ccc(-c2nc(N)n(C(=O)c3cccs3)n2)cc1 | 6.42
CCc1cc2c(=O)[nH]c(COC)nc2s1 | 17.4
Cc1[nH][nH]c(=O)c1C(c1cc(Br)ccc1O)c1c(C)[nH][nH]c1=O | 12
CCOCC(=O)Nc1cc(C(F)(F)F)ccc1Oc1cccc(Br)c1 | -19.8
C=CCNC(=O)c1cccc(OC2CCN(CC(C)(C)C)CC2)c1 | 13.3
CCOC(=O)N1CCN(c2nc(-c3ccc(F)cc3)cs2)CC1 | 4.23
COC(=O)c1ccccc1NC(=O)CSc1nc2cccnc2n1C | 4.99
CCOc1ccccc1N1Cc2ccccc2C1 | 9.16
Cc1cc2cc3c(cc2nc1SCC(=O)N1CCOCC1)OCO3 | 2.58
CCc1cc(-c2n[nH]c(C)c2-c2ccccc2Cl)c(O)cc1OC | 16.8
Cc1nnc(Cl)c2nn(-c3ccccc3F)c(C)c12 | 10.3
CCn1c(SCC(=O)c2cc(OC)ccc2OC)nnc1C(C)C | 0.936
COc1cccc(CCC(=O)N2CCC(n3nccc3NC(=O)CC(C)C)CC2)c1 | 8.16
COC(=O)C1=C(C)NC(C)=C(C(=O)O[C@@H]2CCCN(Cc3ccccc3)C2)[C@@H]1c1cccc([N+](=O)[O-])c1.Cl | 9.68
CCCCC[C@H](O)/C=C/[C@H]1[C@H](O)CC(=O)[C@@H]1CCCCCCC(=O)O | 0.0793
O=C(O)CCCNc1ccc(S(=O)(=O)N2CCCCC2)cc1 | 5.06
CCNS(=O)(=O)c1ccc(CCC(=O)N2CCOCC2)cc1 | 25.2

SMILES | hERG current change (%, negative = inhibition) at 10uM [%]
O=C(CSc1nnc(-c2cnccn2)n1Cc1ccco1)c1ccc(Cl)cc1 | -22
CCCC(=O)N(Cc1cc(=O)[nH]c2ccccc12)c1ccccc1 | -8
NC(=O)CSc1n[nH]c(=O)n1CCc1ccccc1 | 16.9
COc1cccc(NC(=O)CSc2nnc(Cc3ccc(OC)c(OC)c3)o2)c1 | 9.8
O=C(NCc1ccccn1)C1CCC(=O)N1C1CCCCC1 (stereo not drawn) | 1.07
O=C(c1ccc(Cl)c(S(=O)(=O)N2CCOCC2)c1)N1CCN(c2ccccc2F)CC1 | -15.1
COC(C)(C)[C@]12CC(O)(c3ccccc3)ON1[C@H]1CCCCC1N2O (stereo partly drawn) | 0.176
CN(C)S(=O)(=O)c1ccc(C(=O)NCc2nnc(SCC(=O)c3ccccc3)o2)cc1 | 2.59
COCCn1c(N)c(N(Cc2ccccc2)C(=O)c2ccc3ccccc3c2)c(=O)[nH]c1=O | 7.55
O=C1/C(=C/c2cccc(Cl)c2)SC(=S)N1CCC(=O)N1CCCCC1CCO (stereo not drawn) | 19.1
c1ccc(CSc2ccc(-c3ccccn3)nn2)cc1 | 13.5
COCCn1c(SCc2ccccc2)nc2c1c(=O)[nH]c(=O)n2C | 0.967
C=CCn1c(COc2ccccc2F)nnc1SCC(=O)c1c[nH]c2ccccc12 | -2.14
S=C(Sc1ccc(Cl)cc1)Sc1ccc(Cl)cc1 | 16.4
CN(C)CCCOc1ccc(C(C)(C)c2ccccc2)cc1.O=C(O)C(=O)O | -16.5
COC(=O)c1ccc(-c2noc(CN(C)CCC3CCCCO3)n2)cc1 (stereo not drawn) | 3.22
Cc1c(NC(=O)C(C)OC(=O)/C=C/c2ccco2)c(=O)n(-c2ccccc2)n1C (stereo not drawn) | 18.2
COc1cc(NC(=O)CSc2nnc(-c3cc(C)on3)o2)cc(OC)c1 | 22
C[C@]12CC[C@H]3C(=CCc4cc(O)ccc43)[C@@H]1CCC2=O | 19.5
CSc1ccc(/C=N/N2CCN(Cc3ccc(Cl)cc3)CC2)cc1 | 8.01
O=C(Nc1cc([N+](=O)[O-])ccc1F)c1ccc2ccccc2c1 | 20.5
